ChEMBL document CHEMBL4888484, “Replenishing the malaria drug discovery pipeline: Screening and hit evaluation of the MMV Hit Generation Library 1 (HGL1) against asexual blood stage Plasmodium falciparum ,using a nano luciferase reporter read-out” (2022)
The whole screen tested about 150,000 compounds, of which about 540 (0.36%) showed an effect of 50% or more. Some of the results follow.

What follows are compounds tested on Plasmodium falciparum (assay: Primary screen in NF54 nanoGlo assay, in single point, at 2uM, 72h; a lower Z score goes with more inhibition). Conditions: timepoint 72 hour.
Assay type: functional, Erythrocyte
For `CC[C@H]1c2cccn2CCN1C(=O)c1cc[nH]n1`, the “% Inhibition” value was -13% and the Z score was 2.45.
For `COc1ccc(S(=O)(=O)N(CC(=O)N2CCNCC2)C[C@H](C)c2ccccc2)cc1OC`, the “% Inhibition” value was 1% and the Z score was -0.15.
For `O=C(CCc1ccncc1)N[C@H]1CCN(c2ncc(C(F)(F)F)cc2Cl)C1`, the “% Inhibition” value was -15% and the Z score was 1.53.
`CN(Cc1nc(-c2ccoc2)no1)[C@H]1CS(=O)(=O)c2ccc(Cl)cc21` was tested, and the “% Inhibition” value was -12% and the Z score was 1.62.
For `CCOC(=O)c1sc2nc(-c3ccc(C(C)C)cc3)c(NCc3cccc(C)c3)n2c1C`, the “% Inhibition” value was 0% and the Z score was 0.03.
`CNc1cc(C(=O)NC[C@@H]2COc3ccccc3C2)ccn1` was tested, and the “% Inhibition” value was -5% and the Z score was 1.04.
For `CC(C)N(CCO)C(=O)C[C@]1(c2cccc(F)c2)CC(=O)N(Cc2cccnc2)C1=O`, the “% Inhibition” value was 1% and the Z score was -0.1.
`Nc1nc(C2(NC(=O)C(F)(F)F)CCCCC2)cs1` was tested, and the “% Inhibition” value was -2% and the Z score was 0.22.
For `CN1CC[C@@]2(CCC1=O)CN(CCCOCc1ccccc1)CCN2C`, the “% Inhibition” value was 1% and the Z score was -0.16.
For `O=C(Nc1cc(C(F)(F)F)n[nH]1)[C@@H]1CCCc2ccccc21`, the “% Inhibition” value was -3% and the Z score was 0.47.
With `COc1ccc(C)cc1C1(CNC(=O)c2ccc(C(=O)O)nc2)CCOCC1` the “% Inhibition” value was -2% and the Z score was 0.19.
For `Cc1ccc(-n2ncc3c(=O)n(CC(=O)N4CCC(Cc5ccccc5)CC4)cnc32)c(C)c1`, the “% Inhibition” value was -1% and the Z score was 0.1.
In the case of `CC[C@H]1CCCCN1C(=O)COc1ccc2c(c1)OCO2`, the “% Inhibition” value is reported as -11% and the Z score is reported as 2.11.
With `O=C(Cc1ccccc1OC(F)F)NC[C@H]1CS(=O)(=O)c2ccccc2O1` the “% Inhibition” value was 3% and the Z score was -0.54.
For `Cn1cccc1CN[C@H]1[C@H](O)[C@@H](N2CCC(Cc3ccccc3)CC2)[C@@H]2OC[C@H]1O2`, the “% Inhibition” value was 10% and the Z score was -1.25.
`CC(=O)c1c(C)nc2c(C#N)c(C)n(-c3ccc(Br)cc3)c2c1-c1ccccc1` was tested, and the “% Inhibition” value was -4% and the Z score was 0.77.
In the case of `O=C1NC2(C(=O)N3CCC(Cc4ccccc4)CC3)CC3CC1C2C3` (configuration not stated), the “% Inhibition” value is reported as 1% and the Z score is reported as -0.18.
With `CCC1(CC)CCN(C(=O)[C@@H]2NCc3ncncc32)C1` the “% Inhibition” value was -16% and the Z score was 3.19.
`CC(C)(C)OC(=O)c1cc(C(=O)N[C@@H](CCc2ccccc2)C(F)F)n[nH]1` was tested, and the “% Inhibition” value was 6% and the Z score was -1.16.
In the case of `CC(F)(F)c1cccc(NC(=O)NCC(F)(F)F)c1`, the “% Inhibition” value is reported as -15% and the Z score is reported as 1.51.
`Cc1[nH]c2ccc(CNC(=O)CCn3ccc(=O)[nH]c3=O)cc2c1C` was tested, and the “% Inhibition” value was 3% and the Z score was -0.33.
`CC(C)(C)c1nn2c(Cc3ccccc3)nnc2[nH]c1=O.CC(C)(C)c1nnc(NNC(=O)Cc2ccccc2)[nH]c1=O` was tested, and the “% Inhibition” value was -30% and the Z score was 3.48.
`C[C@@]1(C(=O)Nc2c[nH]c(C(N)=O)c2)CCOc2ccccc21` was tested, and the “% Inhibition” value was 4% and the Z score was -0.76.
`CC1(CNS(=O)(=O)c2cccc(C(=O)N3C[C@H]4CCC[C@@H]3C4)c2)COC1` was tested, and the “% Inhibition” value was -4% and the Z score was 0.6.
`O=C(c1cnn(-c2ccccc2)n1)N1CCn2nccc2C1` was tested, and the “% Inhibition” value was 0% and the Z score was 0.01.
With `CCN(CC)c1ccc2nnc(CCC(=O)NC3CCCCC3)n2n1` the “% Inhibition” value was -4% and the Z score was 0.65.
For `COc1ccc(C(=O)N2CCOc3ccc(N(C)C)cc3C2)cc1`, the “% Inhibition” value was 5% and the Z score was -0.81.
With `CC1c2ccccc2OC1C(=O)Nc1scnc1-c1ccccc1` (configuration not stated) the “% Inhibition” value was -8% and the Z score was 0.8.
For `CO[C@@H](CNC(=O)c1nc2n(n1)-c1ccccc1S(=O)(=O)N2)c1ccccc1`, the “% Inhibition” value was 34% and the Z score was -4.36.
With `CC(C)(C)CCCC(=O)N1CC[C@@]2(C1)NC(=O)NC2=O` the “% Inhibition” value was -5% and the Z score was 1.07.
For `CC(C)Cc1cc(C(=O)N2CC[C@@]3(CCCN(CC4CC4)C3=O)C2)on1`, the “% Inhibition” value was -3% and the Z score was 0.52.
For `CC(C)N1CC(=O)N(Cc2nn(C)c3ccccc23)C1=O`, the “% Inhibition” value was -1% and the Z score was 0.12.
`Cc1ccc(OCc2cccc(C(=O)N[C@](C)(C(=O)O)C3CC3)c2)cn1` was tested, and the “% Inhibition” value was -5% and the Z score was 0.91.
In the case of `C=CCNC(=O)C1CCC(c2ccccc2)N(Cc2ccc(F)cc2)C1` (configuration not stated), the “% Inhibition” value is reported as 15% and the Z score is reported as -1.46.
`Cc1noc(C)c1CS(=O)(=O)[C@@H](C)C(=O)N(C)C1CCCCC1` was tested, and the “% Inhibition” value was -2% and the Z score was 0.29.
For `Cn1cnnc1-c1nn(C)c2c1CN(C(=O)c1ccccc1F)CC2`, the “% Inhibition” value was 4% and the Z score was -0.56.
In the case of `CC(C)C(=O)N1CCC(NCCCOC2CCCCC2)CC1`, the “% Inhibition” value is reported as -19% and the Z score is reported as 1.71.
For `CC1CC(NS(=O)(=O)c2cc(F)ccc2NCC(=O)N(C)C)C1` (configuration not stated), the “% Inhibition” value was -10% and the Z score was 1.4.
In the case of `O=C(CN1CCS(=O)(=O)CC1)OCc1cccc(F)c1`, the “% Inhibition” value is reported as 8% and the Z score is reported as -1.48.
In the case of `CC(C)c1nnc(N(C)CC(C)(C)O)s1`, the “% Inhibition” value is reported as -5% and the Z score is reported as 0.72.
For `Cc1cc(C(=O)N2CCC(CCc3noc(N(C)C)n3)CC2)n(C)n1`, the “% Inhibition” value was -2% and the Z score was 0.32.
`CN(C)C(=O)c1ccc(CNC(=O)c2cccn2C2CC2)o1` was tested, and the “% Inhibition” value was -3% and the Z score was 0.62.
In the case of `CCOc1cccc(CN(C(=O)OC(C)(C)C)C2CCC(C(=O)N3CCO[C@@H](COc4ccccc4)C3)CC2)c1` (some centres not stated), the “% Inhibition” value is reported as -7% and the Z score is reported as 1.
For `C=CCN(C(=O)Cc1cccc2ccccc12)[C@H]1CCS(=O)(=O)C1`, the “% Inhibition” value was 24% and the Z score was -3.07.
`Cc1cccc(NC(=O)Cn2ccc3ccc(-c4nnc(C)o4)cc32)c1` was tested, and the “% Inhibition” value was 6% and the Z score was -0.76.
In the case of `O=C1OCc2c1cccc2S(=O)(=O)NCC1(C2CC2)CCC1`, the “% Inhibition” value is reported as 9% and the Z score is reported as -1.1.
For `CN1CCC2CCN(C(=O)Nc3ccc4c(c3)OCO4)C2C1` (configuration not stated), the “% Inhibition” value was -4% and the Z score was 0.61.
For `O=C(COc1ccccc1)Nc1cc2ccccc2cc1NC(=O)COc1ccccc1`, the “% Inhibition” value was -8% and the Z score was 1.06.
For `O=C(Cn1ncc(=O)c2ccccc21)Nc1cccc(S(=O)(=O)N2CCCC2)c1`, the “% Inhibition” value was -4% and the Z score was 0.53.
In the case of `CN(C)c1ncc(CN2CCN(CCO)C(C)(C)C2)c2ccccc12`, the “% Inhibition” value is reported as 16% and the Z score is reported as -3.14.
In the case of `Cc1cc(C)c2c(=O)n(CC(=O)Nc3ccc(F)cc3F)c(=O)n(-c3ccccc3)c2n1`, the “% Inhibition” value is reported as -10% and the Z score is reported as 1.32.
`Cc1cccc(C(=O)Nc2ccc(N3CCNC(=O)C3)nc2)n1` was tested, and the “% Inhibition” value was -21% and the Z score was 2.8.
`O=C(NCCN1CCc2c(Cl)cccc2C1)NCc1ccccn1` was tested, and the “% Inhibition” value was -7% and the Z score was 0.68.
In the case of `O=C(NCc1ccc(F)cc1)Nc1snnc1C(=O)NCc1ccc(F)cc1`, the “% Inhibition” value is reported as -30% and the Z score is reported as 3.54.
In the case of `COC(=O)c1cn(CCNC(=O)Nc2cc(C)cc(OC)c2C)nn1`, the “% Inhibition” value is reported as -8% and the Z score is reported as 0.7.
For `CC(=O)OCc1ccc(CN2CCC(=O)NC2=O)cc1`, the “% Inhibition” value was -11% and the Z score was 1.99.
With `O=C(c1n[nH]c2ccccc12)N1CCCn2nc(-c3cccs3)cc2C1` the “% Inhibition” value was -1% and the Z score was 0.21.
`CN(CCCn1ccnc1)C(=O)NCc1c(F)c(F)cc(F)c1F` was tested, and the “% Inhibition” value was -13% and the Z score was 1.37.
With `CN(C)C(=O)NCC(=O)N1CC[C@@]2(CCCN(CC3CCC3)C2=O)C1` the “% Inhibition” value was 3% and the Z score was -0.35.
With `CC(C)n1cc(Br)cc1C(=O)NCc1ncnn1C(C)(C)C` the “% Inhibition” value was -3% and the Z score was 0.51.
`CCc1cccc(/N=C(\NCc2c(C)nn(C)c2C)NC(=O)c2ccc(OC)cc2)c1` was tested, and the “% Inhibition” value was -6% and the Z score was 1.08.
For `Cc1cc(C)c2[nH]c(CN3CCS(=O)(=O)CC3)cc(=O)c2c1`, the “% Inhibition” value was 10% and the Z score was -1.42.
With `CN1C[C@H]2CC[C@@H](C1)N(Cc1coc(-c3ccccc3)n1)C2` the “% Inhibition” value was -7% and the Z score was 1.26.
In the case of `Cc1nc([C@@H]2CCCN2C(N)=O)n(C(C)(C)C)n1`, the “% Inhibition” value is reported as -12% and the Z score is reported as 1.75.
For `Cc1conc1CNc1ccc(C(F)(F)F)nn1`, the “% Inhibition” value was -1% and the Z score was 0.07.
With `COc1ccc(/C=C/c2cc(C(F)(F)F)n[nH]2)cc1` the “% Inhibition” value was -1% and the Z score was 0.05.
`O=C(Nc1ccc(F)cc1)[C@@H](c1ccc(F)cc1)N(C(=O)Cn1nnc2ccccc21)c1ccc(F)cc1` was tested, and the “% Inhibition” value was 2% and the Z score was -0.19.
In the case of `Cc1cc2c(c(-c3ccc(CN4CCCCC4)cn3)c1)O[C@@H](CN)C2`, the “% Inhibition” value is reported as 12% and the Z score is reported as -2.02.
In the case of `O=C(Nc1ccc2c(c1)OCCO2)N1CCC[C@H]1c1cccs1`, the “% Inhibition” value is reported as -4% and the Z score is reported as 0.68.
For `Cc1ccc(CCC(=O)Nc2c(C)noc2C)c(C)c1`, the “% Inhibition” value was -11% and the Z score was 1.23.
For `Cc1nn(-c2ncnc3[nH]cnc23)c2c1[C@@H](c1c(F)cccc1F)CC(=O)N2`, the “% Inhibition” value was 2% and the Z score was -0.3.
`Cc1nc(-c2ncc(C(=O)N[C@@H]3COC4(CCCC4)C3)c(O)n2)cs1` was tested, and the “% Inhibition” value was 2% and the Z score was -0.31.
With `C=C(C)COc1cc(CNC[C@H]2CCc3nncn3C2)ccc1OC` the “% Inhibition” value was 9% and the Z score was -1.19.
`CCN1C(=O)C2(CCN(Cc3ccc(C(F)(F)F)cc3)CC2)C[C@H]1C(=O)NCCOC` was tested, and the “% Inhibition” value was -9% and the Z score was 1.05.
In the case of `CCOC(=O)c1c(NC(=O)NC(C)(C)CCS(C)(=O)=O)c(C#N)cn1CCOC`, the “% Inhibition” value is reported as -2% and the Z score is reported as 0.25.
In the case of `O=C(c1ccc(F)c(F)c1)N1Cc2cncnc2C1`, the “% Inhibition” value is reported as -11% and the Z score is reported as 1.96.
`COc1ccc(F)c(C(=O)N2CCN(CCO)[C@@H]3CS(=O)(=O)C[C@@H]32)c1F` was tested, and the “% Inhibition” value was -1% and the Z score was 0.29.
In the case of `O=C(CC[C@H]1NC(=O)c2ccccc2NC1=O)Nc1cn[nH]c1`, the “% Inhibition” value is reported as -1% and the Z score is reported as 0.16.
With `O=S(=O)(Cc1ccccc1)N1CCC(Cc2c[nH]cn2)CC1` the “% Inhibition” value was -12% and the Z score was 1.91.
In the case of `Cc1ccc(C(=O)N2CCC(c3nc4ccccc4o3)CC2)n1C`, the “% Inhibition” value is reported as -10% and the Z score is reported as 1.24.
In the case of `C[C@@]1(C2CC2)COCCN1C(=O)Cc1csc(-c2nnc[nH]2)n1`, the “% Inhibition” value is reported as -6% and the Z score is reported as 1.16.
